In all, about 340,000 compounds went through this assay and about 12,000 (3.5%) were called active. The inconclusive results got no clear call from the source; some entries with a clear call stand among them for comparison. Calls come from the whole dose curve; as a rule, active = well fitted inhibition curve with a large enough effect; inconclusive = small, poorly fitted or top-dose-only effect, or another doubt; inactive = no such curve, though single readings can be large or run the other way. Potencies of inconclusive entries are left out as doubtful fits.
assay: qHTS Assay for Inhibitors of Hepatitis C Virus (HCV); settings: Huh7.5.1 HCVcc-Cre (HCVcc is cell-culture hepatitis C virus) infection, luciferase reporter, 44 h; series mostly up to 41.8 µM
Method in brief: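 After 44 h co-culture of compound, cells and HCVcc-Cre (~0.5 moi), substrate is added for 15 min at room temperature and luciferase measured over 15 sec. Cells were seeded at 1,000/well and pre-cultured 4 h.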
Potency is the fitted concentration of half-maximal effect; tags give direction and shape of the fitted curve.

Q: With `CCN(CC(=O)Nc1ccc2c(c1)OCCO2)C(=O)CCc1ccc(OC)cc1` as the molecule, how does the Potency read?
A: inconclusive [inhibitor, single point]

Q: Which Potency does the source give for `COC(=O)c1scc(S(=O)(=O)C(C)C)c1N/N=C(\C#N)C(=O)c1ccc(Cl)cc1` here?
A: inconclusive [inhibitor, single point]

Q: Which Potency does the source give for `CCC(O)c1c(-c2ccccc2)nn(C)c1Cl` (stereo not drawn) here?
A: inconclusive [inhibitor, single point]

Q: Which Potency does the source give for `CC(C)COc1cccc(C(=O)NC(=S)NCc2cccnc2)c1` here?
A: inconclusive [inhibitor, single point]

Q: With `Cn1cc(C(=O)NC2CCCCCCC2)c(=O)c2cc(S(=O)(=O)N3CCCC3)ccc21` as the molecule, how does the Potency read?
A: inactive

Q: Which Potency does the source give for `CC(C)C[C@H](NC(=O)[C@@H]1Cc2ccccc2CN1)C(=O)Nc1ccc(C(C)C)cc1` here?
A: inactive

Q: For `CC(C)(C)c1ccc(S(=O)(=O)Nc2ccc(C(=O)N3CCCC3)cc2)cc1`, which Potency is on record?
A: inactive

Q: For `Cc1oc(-c2ccc3c(c2)OCCO3)cc1C(=O)NC(Cc1ccccc1)C(=O)O` (stereo not drawn), which Potency is on record?
A: inactive

Q: Which Potency does the source give for `COc1ccc(OC)c(-c2cc(C(=O)Nc3cc(C)n(Cc4ccc(Cl)cc4)n3)no2)c1` here?
A: active: 11.2 µM

Q: For `Cc1cc(C)n(-c2nnc3n2N=C(c2c[nH]c4ccccc24)CS3)n1`, which Potency is on record?
A: inconclusive [inhibitor, partial curve]

Q: Which Potency does the source give for `CCn1c(C)nc2cc(C(=O)NNC(=S)NC(=O)c3ccc(OC)cc3)ccc21` here?
A: inconclusive [inhibitor, single point]

Q: For `CC1CCC(C(C)C)C(OCC(O)CNC(C)c2ccccc2)C1` (stereo not drawn), which Potency is on record?
A: inconclusive [inhibitor, single point]

Q: For `CCc1ccc2[nH]cc(S(=O)(=O)c3ccc(C)c(C)c3)c(=O)c2c1`, which Potency is on record?
A: inactive

Q: Which Potency does the source give for `CCOc1ccc(/C=N/NC(=O)Cc2csc(Nc3cccc(C(F)(F)F)c3)n2)c(OCC)c1` here?
A: inconclusive [inhibitor, partial curve, poor fit]

Q: Which Potency does the source give for `Cc1cc(-c2ccccc2)cc(C)[n+]1Cc1ccccc1` here?
A: inactive

Q: For `Cc1sc2ncnc(N3CCC(C(=O)Nc4ccc(S(N)(=O)=O)cc4)CC3)c2c1C`, which Potency is on record?
A: inconclusive [inhibitor, single point]

Q: Which Potency does the source give for `CCOC(=O)C1=C(C)N(CCCC(=O)O)C(=O)NC1c1ccccc1` (stereo not drawn) here?
A: inconclusive [inhibitor, partial curve]

Q: For `O=C(Nc1ccccn1)c1cccc(S(=O)(=O)N2CCc3ccccc3C2)c1`, which Potency is on record?
A: inconclusive [inhibitor, single point]

Q: Which Potency does the source give for `Cc1ccc(-c2csc(N3CCC[C@@H]3C(=O)NCCn3c(C(F)(F)F)nc4ccccc43)n2)cc1` here?
A: inconclusive [inhibitor, partial curve]

Q: Which Potency does the source give for `CCOc1ccccc1NC(=O)c1nc(S(=O)(=O)Cc2ccccc2)ncc1Cl` here?
A: inconclusive [inhibitor, single point]

Q: For `Cc1cc(C)c2nc(-c3ccccn3)cc(C(=O)Nc3cc(C)on3)c2c1`, which Potency is on record?
A: inconclusive [inhibitor, partial curve]

Q: Which Potency does the source give for `O=C(CC1(CC(=O)N2CCOCC2)CCCC1)Nc1ccccc1` here?
A: inactive

Q: With `O=C(NC1CCCCCC1)c1ccc([N+](=O)[O-])s1` as the molecule, how does the Potency read?
A: inconclusive [inhibitor, single point]

Q: Which Potency does the source give for `Cc1cc(-n2c(C)cc(C(=O)COc3cc(F)ccc3[N+](=O)[O-])c2C)no1` here?
A: inconclusive [inhibitor, single point]

Q: With `Cc1nc2ccccc2c(=O)n1/N=C/c1ccccc1` as the molecule, how does the Potency read?
A: inactive

Q: With `CCOc1cc(/C=C/c2ccc3cccc([N+](=O)[O-])c3n2)cc(Cl)c1O` as the molecule, how does the Potency read?
A: inconclusive [inhibitor, full curve]

Q: With `COC(=O)C1=C(c2ccc(OCc3ccccc3)cc2)C[C@@H]2CC[C@H]1N2C(=O)NCc1ccc(OC)c(OC)c1` as the molecule, how does the Potency read?
A: active: 10 µM

Q: With `COc1ccccc1CNC(=O)/C=C/c1ccc(S(=O)(=O)N2CCOCC2)cc1` as the molecule, how does the Potency read?
A: inactive

Q: Which Potency does the source give for `COc1ccc2oc(C(=O)Nc3ccc(S(=O)(=O)N(C)C4CCN(C)CC4)cc3)c(C)c2c1` here?
A: active: 11.2 µM

Q: With `NC(=O)CSc1nccn1Cc1ccccc1` as the molecule, how does the Potency read?
A: inactive

Q: Which Potency does the source give for `N#Cc1ccc(Cl)cc1NC(=O)CNc1cccc(S(=O)(=O)N2CCCC2)c1` here?
A: inconclusive [inhibitor, single point]

Q: With `CCc1cccc(NS(=O)(=O)c2csc(C(N)=O)c2)c1` as the molecule, how does the Potency read?
A: inconclusive [inhibitor, single point]

Q: With `Cc1ccc2nc(N3CCN(CCO)CC3)nc(-c3ccccc3)c2c1` as the molecule, how does the Potency read?
A: inconclusive [inhibitor, partial curve]

Q: Which Potency does the source give for `Cc1cccc(C(=O)Oc2ccc(/C=N/NC(=O)c3ccncc3)cc2)c1` here?
A: inactive

Q: Which Potency does the source give for `CCC(C)Sc1ccc(-c2nc3cnccn3c2NC2CCCCC2)cc1` (stereo not drawn) here?
A: inconclusive [inhibitor, single point]

Q: Which Potency does the source give for `Cc1ccc(S(=O)(=O)c2c(N)n(Cc3ccco3)c3nc4ccccc4nc23)cc1` here?
A: inconclusive [inhibitor, single point]

Q: With `Cc1ccc2sc(N(CCCN(C)C)C(=O)c3ccc(S(=O)(=O)N4CCCCCC4)cc3)nc2c1C` as the molecule, how does the Potency read?
A: active: 14.1 µM

Q: For `CCn1c(SCC(N)=O)nnc1-c1ccc2[nH]c(C)c(C)c2c1`, which Potency is on record?
A: inconclusive [inhibitor, single point]

Q: With `COCC1CCCCN1C(=O)c1ccc(OC)c(OC2CCN(C(C)C)CC2)c1` (stereo not drawn) as the molecule, how does the Potency read?
A: inconclusive [inhibitor, single point]

Q: With `Cc1nc(SCC(=O)NC(C)c2ccccc2)c2oc3ccccc3c2n1` (stereo not drawn) as the molecule, how does the Potency read?
A: inconclusive [inhibitor, single point]

Q: With `O=S(=O)(Nc1nnc(C2CC2)s1)c1ccccc1` as the molecule, how does the Potency read?
A: inactive

Q: For `Cc1ccc(C)c(S(=O)(=O)N2CCC(c3nc4c(nnn4Cc4ccc5c(c4)OCCO5)c(=O)[nH]3)CC2)c1`, which Potency is on record?
A: inconclusive [inhibitor, single point]

Q: With `CC(=O)c1ccc2c(c1)N(CCCN(C)C)c1ccccc1S2` as the molecule, how does the Potency read?
A: inconclusive [inhibitor, full curve, poor fit]

Q: With `O=C(COC(=O)c1ccc(S(=O)(=O)N2CCOCC2)cc1)NC1CCCCCC1` as the molecule, how does the Potency read?
A: inactive

Q: Which Potency does the source give for `CSc1nnc2c3cc(C)ccc3n(Cc3ccccc3)c2n1` here?
A: inactive

Q: With `CCc1nc(C)cn1S(=O)(=O)c1cc(Cl)c(OC)cc1Cl` as the molecule, how does the Potency read?
A: inconclusive [inhibitor, single point]

Q: With `CCCn1c(NCc2ccccc2NS(=O)(=O)c2ccc(C)cc2)nc2ccccc21` as the molecule, how does the Potency read?
A: inconclusive [inhibitor, full curve]

Q: Which Potency does the source give for `Cc1cccc(NC(=O)C(C)Sc2nc3ccccc3c(=O)n2CCCN2CCOCC2)c1` (stereo not drawn) here?
A: inconclusive [inhibitor, partial curve, poor fit]

Q: Which Potency does the source give for `Cc1cc(C(F)(F)F)n(-c2nc(C(=O)N/N=C/c3ccc(F)cc3)cs2)n1` here?
A: inconclusive [inhibitor, single point]

Q: Which Potency does the source give for `O=C(NCC1CCCO1)C(c1cccs1)N(Cc1ccccc1Cl)C(=O)c1ccc(-c2ccccc2)[nH]1` (stereo not drawn) here?
A: inconclusive [inhibitor, single point]

Q: For `CCCC(=O)N/C(N)=N/c1nc(C)c2cc(C)ccc2n1`, which Potency is on record?
A: active: 6.31 µM

Q: With `O=[N+]([O-])c1ccccc1Oc1ccc(S(=O)(=O)N2CCOCC2)cc1` as the molecule, how does the Potency read?
A: active: 7.94 µM

Q: Which Potency does the source give for `CCNc1nc(NC(C)(C)C)nc(SC)n1` here?
A: inconclusive [inhibitor, partial curve]

Q: For `CCOC(=O)C1(CCc2ccccc2)CCN(Cc2nccn2CC)CC1`, which Potency is on record?
A: inconclusive [inhibitor, single point]

Q: With `Cc1ccc(C2(c3ccccc3)NC(=O)N(CC(=O)N3CC(=O)Nc4ccccc43)C2=O)cc1C` (stereo not drawn) as the molecule, how does the Potency read?
A: inconclusive [inhibitor, single point]

Q: For `NC(=O)c1ccc(OCC(F)(F)F)nc1`, which Potency is on record?
A: inactive

Q: With `O=C(OCC(=O)N1CCc2ccccc21)c1ccc(Cl)nc1` as the molecule, how does the Potency read?
A: inactive

Q: For `CN1CCN(Cc2nc3ccccc3n2C)CC1CCO` (stereo not drawn), which Potency is on record?
A: inactive

Q: For `COc1cccc(CN2CC(C(=O)NCc3ccc(C)o3)CCC2=O)c1` (stereo not drawn), which Potency is on record?
A: inactive

Q: With `Cc1cc(C(=O)CSc2nc(N)cc(=O)[nH]2)c(C)n1CC1CCCO1` (stereo not drawn) as the molecule, how does the Potency read?
A: inconclusive [inhibitor, partial curve]

Q: Which Potency does the source give for `COc1ccc(N2CCN(C(CNS(=O)(=O)c3ccc4c(c3)OCCO4)c3ccco3)CC2)cc1` (stereo not drawn) here?
A: inconclusive [inhibitor, partial curve]

Q: For `CC(=O)Oc1ccc(C2=NN(c3ccccc3)C(c3ccccc3)C2)cc1` (stereo not drawn), which Potency is on record?
A: inconclusive [inhibitor, full curve, poor fit]

Q: For `O=C(NCc1ccncc1)c1cccc(S(=O)(=O)Nc2ccc(F)cc2)c1`, which Potency is on record?
A: inconclusive [inhibitor, single point]

Q: For `CCc1ccc(-n2c(SCC(=O)c3ccc4c(c3)NC(=O)CO4)nc3ccccc3c2=O)cc1`, which Potency is on record?
A: inconclusive [inhibitor, single point]

Q: Which Potency does the source give for `Cc1ccc2nc(CCc3nc4ccc(C)cc4[nH]3)[nH]c2c1` here?
A: inconclusive [inhibitor, partial curve]

Q: For `CCCNC(=O)/C=C/c1ccc(S(=O)(=O)Nc2ccccc2OC)cc1`, which Potency is on record?
A: inconclusive [inhibitor, partial curve]

Q: For `O=C(c1ccc(-c2ccccc2)c(F)c1)C1CCCN(CCCn2cccn2)C1` (stereo not drawn), which Potency is on record?
A: inconclusive [inhibitor, partial curve]

Q: Which Potency does the source give for `CCOc1ccc(NC(=O)CN(C)C(=O)C2CC(=O)N(c3ccc4c(c3)OCCO4)C2)cc1OCC` (stereo not drawn) here?
A: inconclusive [inhibitor, single point]

Source: PubChem BioAssay AID651820 (National Center for Advancing Translational Sciences (NCATS), 2012)
